In the assay the test system is 171881-019-R-J1-PDC multicell spheroid viability. Put plainly: Anticancer human tumor 171881-019-R-J1-PDC patient-derived invasive breast carcinoma cell line growth inhibition [IpAb]. Particulars: stronger effect = lower value. The source says:
Combinatorial screen of targeted agents with ipatasertib and abemaciclib in multi-cell type tumor spheroids
A high-throughput screen of multi-cell type tumor spheroids was designed to identify active combinations of targeted small molecules and ipatasertib or abemaciclib. Complex spheroids include a stromal component modeled by human endothelial cells (HUVEC) and fibroblasts modeled by human mesenchymal stem cells (MSCs). The concentration ranges selected for each drug and investigational agent were based upon clinically achievable concentrations if the clinical Cmax of the agent was known.
Compounds. The drugs and investigational agents: ipatasertib (NSC767898), abemaciclib(NSC768073), selumetinib (NSC741078), trametinib (758246), adavosertib (NSC754352), everolimus (NSC733504), sapanisertib (NSC764658), vemurafenib (NSC761431), venetoclax (NSC766270), copanlisib (NSC809693), apelisib (NSC765974), palbociblib (NSC758247), vemurafenib (NSC761431), dabrafenib (NSC764134), ravoxertinib (NSC781343), BMS-387032 (NSC767048), sotorasib (NSC818433), talazoparib (NSC767125) and afursertib (NSC778305), were obtained from the National Cancer Institute (NCI) Developmental Therapeutics Program Chemical Repository. The FDA-approved anticancer drug set is available from the NCI Developmental Therapeutics Program. […] The stock solutions were prepared in dimethyl sulfoxide (DMSO, Sigma-Aldrich, St. Louis, MO, cat. D2650) at 800-fold the tested concentration and stored at -70 degrees C prior to their use. All drugs and investigational agents were tested over a range starting from a high concentration at or near the clinical Cmax and decreasing in half-log increments. If the clinical Cmax for an agent had not been determined, the highest concentration tested was 10 microM.
NCI60 Cell Culture. NCI60 cell lines were obtained from the NCI Developmental Therapeutics Program Tumor Repository. […] The optimal seeding densities for each of the cell lines at each time point assessed were determined prior to performing the concentration response studies. […]

Some entries of the source have several records that differ or are many. This list holds those alone. There may be further records. Values given together are repeats (runs, samples, wells, individuals or studies). Counts like (3×) say how often a value occurs here.
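Note: spheroids exposed to the agents for seven days before readout.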

Turning to `CC(C)NCC(C(=O)N1CCN(c2ncnc3c2C(C)CC3O)CC1)c1ccc(Cl)cc1` (stereo not drawn), the viability, T/C (compound alone 0.1 µM) was 105, 106, 108, 115, 120, 107, 118, 111, 95.7, 103, 90.4, 113, 104% and the viability, T/C (compound alone 0.316 µM) is 77.5, 82.9, 77.8, 89, 80.7, 82.4, 94.8, 72.1, 81.4, 69.7, 75.9, 84.3, 72.4%.
For the compound `CCN1CCN(Cc2ccc(Nc3ncc(F)c(-c4cc(F)c5nc(C)n(C(C)C)c5c4)n3)nc2)CC1`, the viability, T/C (compound alone 0.316 µM) was 141, 116, 131 (2×), 126 (2×), 124, 122 (2×), 134, 144, 135, 132%.

The values are drawn from PubChem BioAssay AID2060342 (Molecular Pharmacology Branch, DTP, NCI, 2025).
